These results are taken from article PMC12820563.

The other results are listed elsewhere or left out. The list includes weakly bound sequences.

The test concerns the target T1, MBP-FoxP3dN (UniProt Q99JB6).
T1 sequence: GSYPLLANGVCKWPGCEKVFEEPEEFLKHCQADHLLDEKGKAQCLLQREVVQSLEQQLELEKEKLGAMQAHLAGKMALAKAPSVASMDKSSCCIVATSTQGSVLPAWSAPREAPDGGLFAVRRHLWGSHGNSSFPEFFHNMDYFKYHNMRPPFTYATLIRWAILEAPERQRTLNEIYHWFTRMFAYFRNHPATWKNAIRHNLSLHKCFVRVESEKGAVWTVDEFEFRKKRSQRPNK
Put plainly: PD-seq (MBP pull-down with sequencing). The settings on record: 20 mM Tris-HCl pH 7.5, 100 mM NaCl, 1.5 mM MgCl2, 0.4 uM protein, 0.1 uM dsDNA library, 30 min, room temperature, amylose pull-down; high values mean tight binding; double strand, one strand shown.
“GATGATTGTTCTCCCAGCTGATGAATTGCGACCCTCGAGTAAACAAATTTTCCTAATCTTTCTGTTCAAGCGCCATCTAC”: the binding signal (RPM ratio (pull-down/input)) came out at 1.01.
Turning to “GATGATTGTTCTCCCAGCTGATGAATTCCTCAAGTCGAGTAAACAAATTTTCCTAATCTTTCTGTTCAAGCGCCATCTAC”, the binding signal (RPM ratio (pull-down/input)) was found to be 0.199.
On to “GATGATTGTTCTCCCAGCTGATGAATTGCCGCCTTCGAGTAAACAAATTTTCCTAATCTTTCTGTTCAAGCGCCATCTAC”, for which the binding signal (RPM ratio (pull-down/input)) turned out to be 3.89.
Under “GATGATTGTTCTCCCAGCTGATGAATTCTATATTTCGAGTAAACAAATTTTCCTAATCTTTCTGTTCAAGCGCCATCTAC” stands 0.729; under “GATGATTGTTCTCCCAGCTGATGAATTTCAAATCTCGAGTAAACAAATTTTCCTAATCTTTCTGTTCAAGCGCCATCTAC”, 0.221.
With “GATGATTGTTCTCCCAGCTGATGAATTTCTCCCGTCGAGTAAACAAATTTTCCTAATCTTTCTGTTCAAGCGCCATCTAC”, the binding signal (RPM ratio (pull-down/input)) was 0.222.
Consider “GATGATTGTTCTCCCAGCTGATGAATTCAAAGTTTCGAGTAAACAAATTTTCCTAATCTTTCTGTTCAAGCGCCATCTAC”, for which the binding signal (RPM ratio (pull-down/input)) worked out at 0.273.
The value for “GATGATTGTTCTCCCAGCTGATGAATTCTAGTGGTCGAGTAAACAAATTTTCCTAATCTTTCTGTTCAAGCGCCATCTAC” was 0.391.
Turning to “GATGATTGTTCTCCCAGCTGATGAATTAAGTTTGTCGAGTAAACAAATTTTCCTAATCTTTCTGTTCAAGCGCCATCTAC”, the binding signal (RPM ratio (pull-down/input)) was 4.83.
As for “GATGATTGTTCTCCCAGCTGATGAATTACGCGATTCGAGTAAACAAATTTTCCTAATCTTTCTGTTCAAGCGCCATCTAC”, the binding signal (RPM ratio (pull-down/input)) turned out to be 1.18.
Consider “GATGATTGTTCTCCCAGCTGATGAATTCAGCGAGTCGAGTAAACAAATTTTCCTAATCTTTCTGTTCAAGCGCCATCTAC”, for which the binding signal (RPM ratio (pull-down/input)) worked out at 0.527.
Consider “GATGATTGTTCTCCCAGCTGATGAATTTACAGCATCGAGTAAACAAATTTTCCTAATCTTTCTGTTCAAGCGCCATCTAC”, for which the binding signal (RPM ratio (pull-down/input)) is 1.07.
As to “GATGATTGTTCTCCCAGCTGATGAATTTTGCGCATCGAGTAAACAAATTTTCCTAATCTTTCTGTTCAAGCGCCATCTAC”, the binding signal (RPM ratio (pull-down/input)) turned out to be 1.98.
Under “GATGATTGTTCTCCCAGCTGATGAATTCCCTGCTTCGAGTAAACAAATTTTCCTAATCTTTCTGTTCAAGCGCCATCTAC” stands 0.268.
Regarding “GATGATTGTTCTCCCAGCTGATGAATTAGGTTAGTCGAGTAAACAAATTTTCCTAATCTTTCTGTTCAAGCGCCATCTAC”, the binding signal (RPM ratio (pull-down/input)) turned out to be 1.05.
As to “GATGATTGTTCTCCCAGCTGATGAATTTATTTGCTCGAGTAAACAAATTTTCCTAATCTTTCTGTTCAAGCGCCATCTAC”, the binding signal (RPM ratio (pull-down/input)) was found to be 6.11.
Regarding “GATGATTGTTCTCCCAGCTGATGAATTTGATACCTCGAGTAAACAAATTTTCCTAATCTTTCTGTTCAAGCGCCATCTAC”, the binding signal (RPM ratio (pull-down/input)) stood at 1.2.
For “GATGATTGTTCTCCCAGCTGATGAATTTTGTACGTCGAGTAAACAAATTTTCCTAATCTTTCTGTTCAAGCGCCATCTAC”, the binding signal (RPM ratio (pull-down/input)) is 1.18.
Take “GATGATTGTTCTCCCAGCTGATGAATTATTGCATTCGAGTAAACAAATTTTCCTAATCTTTCTGTTCAAGCGCCATCTAC”: the binding signal (RPM ratio (pull-down/input)) worked out at 7.31.
For “GATGATTGTTCTCCCAGCTGATGAATTTAGCGGGTCGAGTAAACAAATTTTCCTAATCTTTCTGTTCAAGCGCCATCTAC”, the binding signal (RPM ratio (pull-down/input)) stood at 0.56.
As to “GATGATTGTTCTCCCAGCTGATGAATTCTAGTCTTCGAGTAAACAAATTTTCCTAATCTTTCTGTTCAAGCGCCATCTAC”, the binding signal (RPM ratio (pull-down/input)) was determined as 0.382.
For the sequence “GATGATTGTTCTCCCAGCTGATGAATTAGTACATTCGAGTAAACAAATTTTCCTAATCTTTCTGTTCAAGCGCCATCTAC”, the binding signal (RPM ratio (pull-down/input)) is 0.842.
“GATGATTGTTCTCCCAGCTGATGAATTTAAACAATCGAGTAAACAAATTTTCCTAATCTTTCTGTTCAAGCGCCATCTAC”: the binding signal (RPM ratio (pull-down/input)) amounted to 0.913.
Consider “GATGATTGTTCTCCCAGCTGATGAATTTGTCTATTCGAGTAAACAAATTTTCCTAATCTTTCTGTTCAAGCGCCATCTAC”, for which the binding signal (RPM ratio (pull-down/input)) worked out at 5.7.
With “GATGATTGTTCTCCCAGCTGATGAATTGAGCTGTTCGAGTAAACAAATTTTCCTAATCTTTCTGTTCAAGCGCCATCTAC”, the binding signal (RPM ratio (pull-down/input)) was 0.939.
For “GATGATTGTTCTCCCAGCTGATGAATTCTCGGTTTCGAGTAAACAAATTTTCCTAATCTTTCTGTTCAAGCGCCATCTAC”, the binding signal (RPM ratio (pull-down/input)) amounted to 0.333.
“GATGATTGTTCTCCCAGCTGATGAATTTGCCTTTTCGAGTAAACAAATTTTCCTAATCTTTCTGTTCAAGCGCCATCTAC”: the binding signal (RPM ratio (pull-down/input)) was 2.1.
Take “GATGATTGTTCTCCCAGCTGATGAATTTGCCGATTCGAGTAAACAAATTTTCCTAATCTTTCTGTTCAAGCGCCATCTAC”: the binding signal (RPM ratio (pull-down/input)) came to 0.474.
For the sequence “GATGATTGTTCTCCCAGCTGATGAATTATTTTAGTCGAGTAAACAAATTTTCCTAATCTTTCTGTTCAAGCGCCATCTAC”, the binding signal (RPM ratio (pull-down/input)) was 0.414.
Take “GATGATTGTTCTCCCAGCTGATGAATTATTGTATTCGAGTAAACAAATTTTCCTAATCTTTCTGTTCAAGCGCCATCTAC”: the binding signal (RPM ratio (pull-down/input)) came out at 3.03.
Under “GATGATTGTTCTCCCAGCTGATGAATTACAACCGTCGAGTAAACAAATTTTCCTAATCTTTCTGTTCAAGCGCCATCTAC” stands 0.497; under “GATGATTGTTCTCCCAGCTGATGAATTACCTGACTCGAGTAAACAAATTTTCCTAATCTTTCTGTTCAAGCGCCATCTAC”, 0.229.
